# Laboratory results: PubChem BioAssay (NCATS)
# “And” between values parts separate entries of the source, which are not always exact repeats. Equal entries are not always repeated. Inconclusive results, whose numbers are uncertain, are shown with a selection of clear calls. For some of these results: No potency is given beside an inconclusive call; the fits are too rough. A structure can be active in one record and inactive in another. The source made the active and inactive calls. Unless noted, calls come from the whole dose curve; as a rule, active = well fitted curve in the direction sought with a large enough effect; inconclusive = small, poorly fitted or top-dose-only effect, or another doubt; inactive = no such curve, though single readings can be large; an effect the other way counts as inactive or inconclusive.
# Legend:
# [1] = qHTS of pediatric cancer cell lines to identify multiple opportunities for drug repurposing: Primary screen for A673 cells (AID 1347092); details: A673 Ewing sarcoma viability, CellTiter-Glo ATP luminescence, 48 h; activity change, negative = cytotoxic: at 46 µM (top of the series); note: % is set by controls: 0 for no effect and ±100 for the full control effect; nearly all actives have a fitted effect of over 45% in size
# Outline: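 Luminescence from CellTiter-Glo, taken after 15 min at room temperature, served as the proxy for metabolically active cells following 48 h treatment. Both potency and efficacy were taken from curves fitted to the titration data.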
# [2] = qHTS of pediatric cancer cell lines to identify multiple opportunities for drug repurposing: Primary screen for SK-N-MC cells (AID 1347093); details: SK-N-MC viability, CellTiter-Glo luminescence, 48 h; activity change, negative = cytotoxic: at 46 µM (top of the series);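 note: plate controls were DMSO neutral control for no effect and bortezomib for full effect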
# Outline: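 Metabolically active cells were quantified by ATP-dependent luminescence (CellTiter-Glo, 15 min at room temperature) following 48 h treatment. Cells had been plated at 500-1,000 per well and settled for 5 h beforehand.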
# [3] = qHTS of pediatric cancer cell lines to identify multiple opportunities for drug repurposing: Primary screen for Rh18 cells (AID 1347102); note: % is set by controls: 0 for no effect and ±100 for the full control effect; nearly all actives have a fitted effect of over 65% in size
# Outline: (§1)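 Cells (500-1,000/well) rested 5 h, then received compounds for 48 h; metabolically active cells were measured by CellTiter-Glo luminescence. Final concentrations spanned up to 46 µM (MIPE, 11-point) or 0.59 nM-46 µM (NPC, 8-point) in primary screens, 11-point in follow-ups.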
# [4] = qHTS of pediatric cancer cell lines to identify multiple opportunities for drug repurposing: Primary screen for Rh41 cells (AID 1347108);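 note: luminescence drop marks cytotoxic hits; nearly all actives have a fitted effect of over 70% in size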
# Outline: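 Cells seeded at 500-1,000 cells/well in growth media, rested 5 hours at 37 degrees C, 5% CO2, then dosed; MIPE compounds at 11-point (from 0.78 nM) and NPC at 8-point (from 0.59 nM) final concentrations. Viability by CellTiter-Glo luminescence after 48 hours.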
# [5] = molecular target: Cytochrome P450 2D6 (Homo sapiens) (UniProt P10635); test: qHTS for inhibitors of CYP2D6 against the NCATS DSHEA and TCM libraries (AID 1919972); note: potency is the fitted concentration of half-maximal effect; for activity change, negative = inhibition: % is set by controls: 0 for no effect and ±100 for the full control effect
# Outline: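 Steps: enzyme plus luciferin substrate dispensed; test substances pinned; 15 min RT; 1x NADPH regenerating solution added, 30–45 min RT protected from light; detection reagent, 30 min RT; luminescence measured. Minus-enzyme wells as background.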
# [6] = A High-Content qHTS Against Drug Library for the Identification of Small Molecules that Inhibit DYT1 Early Onset Primary Dystonia-Associated Cell Pathology (AID 1645839; calls by dose curve)
# Outline: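 In this high-content image screen, delE TorsinA mislocalization in inducible Flp-In 293 cells is scored as %pathology, with cell count serving as the counterscreen. Compound exposure lasts 48 h under tetracycline induction in reduced-serum medium.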
# [7] = qHTS Assay for Identifying Gametocytocidal Compounds (AID 743244); note: potency is the fitted concentration of half-maximal effect;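 for max response: % is set by controls: 0 for no effect and ±100 for the full control effect; actives lower the fluorescent signal which means gametocytes are killed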; details: P. falciparum 3D7 stage III-V gametocytes, alamarBlue, 72 h; max response: stronger effect = lower value
# Outline: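 In this qHTS viability screen, late-stage 3D7 gametocytes are incubated with compound for 72 h, then with alamarBlue for 24 h; reduced resorufin fluorescence marks killing.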
# [8] = molecular target: Mitogen-activated protein kinase 10 (Mus musculus) (UniProt Q61831); test: JNK3 AlphaScreen Assay (AID 530; active = well fitted curve in either direction with a large enough effect, not every such curve was filed as active; inconclusive = small, poorly fitted or top-dose-only effect, or another doubt;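 note: kinase came from lysate of stimulated human HepG2 cells; signal reports phosphorylation of biotinylated GST-cJun 1-79 at Ser73 with 10 µM ATP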; note: potency is the fitted concentration of half-maximal effect; for activity change, negative = inhibition: % is set by controls: 0 for no effect and ±100 for the full control effect); details: JNK3 lysate, c-Jun phosphorylation; activity change, negative = inhibition: at 57.1 µM (top of the series)
# Outline: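 Room-temperature AlphaScreen kinase assay; pre-activated HepG2 lysate as JNK3 source, biotin-GST-cJun(1-79) substrate, 10 uM ATP, compound 15 min preincubation.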
# [9] = qHTS of pediatric cancer cell lines to identify multiple opportunities for drug repurposing: Primary screen for SJ-GBM2 cells (AID 1347091);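 note: plate controls were DMSO neutral control for no effect and bortezomib for full effect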
# Outline: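 Cell viability, CellTiter-Glo luminescence; 500-1,000 cells/well, 8- or 11-point titration, 48 h compound exposure at 37 degrees C, 5% CO2. Controls: DMSO neutral, bortezomib 2.3 µM final as positive.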
# [10] = qHTS of pediatric cancer cell lines to identify multiple opportunities for drug repurposing: Primary screen for OHS-50 cells (AID 1347103); details: OHS-50 osteosarcoma viability, CellTiter-Glo luminescence, 48 h; activity change, negative = cytotoxic: at 57.3 µM (top of the series);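 note: plate controls were DMSO neutral control for no effect and bortezomib positive control for full effect; nearly all actives have a fitted effect of over 40% in size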
# Outline: as §1
# [11] = qHTS Assay for Identification of Small Molecule Antagonists for Thrombopoietin (TPO) Signaling Pathway (AID 918); details: TPO-dependent cell signaling reporter, antagonist mode; activity change, negative = inhibition: at 38.5 µM (top of the series); note: nearly all actives have a fitted effect of over 60% in size
# Outline: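 First, Ba/F3 reporter cells expressing human TPO receptor were held overnight without IL-3. Next, compound and 26 pM TPO were added. After 24 hrs incubation at 37 C, luciferase luminescence under the Glycoprotein IIb promoter was recorded.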
# [12] = molecular target: Glucocorticoid receptor (Homo sapiens) (UniProt P04150); test: qHTS assay for small molecule antagonists of glucocorticoid receptor signaling (AID 588533; active = well fitted inhibition curve with a large enough effect in the signal ratio, with a control signal flat, not every such curve was filed as active; inconclusive = small, poorly fitted or top-dose-only effect, or effect the other way, or a change in a side signal; the % refers to the signal ratio;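 note: cells stimulated with 2 nM dexamethasone as agonist; % is set by controls: 0 for no effect and ±100 for the full control effect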); details: HeLa MMTV-bla, GRE beta-lactamase ratio, antagonist mode, 18 h; activity change, negative = inhibition: at 76.8 µM (top of the series)
# [13] = molecular target: Peroxisome proliferator-activated receptor delta (Homo sapiens) (UniProt Q03181); test: qHTS assay for small molecule antagonists of peroxisome proliferator-activated receptor delta signaling (AID 588535; active = well fitted inhibition curve with a large enough effect in the signal ratio, with a control signal flat, not every such curve was filed as active; inconclusive = small, poorly fitted or top-dose-only effect, or effect the other way, or a change in a side signal; inactive = no such curve, though single readings can be large or run the other way; the % refers to the signal ratio); details: HEK293T PPARd-UAS-bla, beta-lactamase FRET ratio, 18 h; activity change, negative = inhibition: at 76.7 µM (top of the series)
# Outline: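 Cell-based beta-lactamase assay in antagonist mode: 4000 HEK293T PPAR-delta-UAS-bla cells per well, 5 hr preincubation then 18 hr compound incubation at 37 C. IC50 obtained by Hill equation fitting.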
# [14] = qHTS assay for small molecule agonists of the antioxidant response element (ARE) signaling pathway (AID 651741; active = well fitted activation curve with a large enough effect in the signal ratio; inconclusive = small, poorly fitted or top-dose-only effect, or effect the other way, or a change in a side signal; the % refers to the signal ratio; note: potency is the fitted concentration of half-maximal effect; for activation: % of control where 0% means no effect); details: HepG2 ARE-bla reporter, beta-lactamase FRET ratio, 16 h; activation: at 96 µM (top of the series)
# Outline: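 Seeding 2,000 ARE-bla HepG2 cells per well preceded a 5 h incubation at 37 C/5% CO2 and a 16 h compound exposure at 37 C. Beta-lactamase reporter activity was then quantified by fluorescence after 2 h with LiveBLAzer B/G FRET substrate.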
# [15] = molecular target: Cytochrome P450 3A4 (Homo sapiens) (UniProt P08684); test: Cytochrome P450 family 3 subfamily A member 4 (CYP3A4) small molecule antagonists: luciferase qHTS assay (AID 1645841; active = well fitted curve in the direction sought with a large enough effect in the repeat runs; inconclusive = weak or mixed curves; inactive = no such curve, though single readings can be large; an effect the other way counts as inactive or inconclusive; note: nearly all actives have a fitted effect of over 45% in size; note: potency is the fitted concentration of half-maximal effect)
# Outline: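 Luminescent CYP3A4 activity readout: compounds plus enzyme-substrate mix 10 min at room temperature, reaction started with NADPH regenerating system for 1 h, stopped with detection reagent, read after 20 min. Ketoconazole served as control.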
# AA1029 = test: qHTS profiling for inhibitors of Plasmodium falciparum proliferation (AID 504749); note: nearly all actives have a fitted effect of over 60% in size; note: potency is the fitted concentration of half-maximal effect; details: P. falciparum in erythrocytes, SYBR Green DNA, 72 h; series mostly up to 28.7 µM
# Outline: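 Three-day growth assay of blood-stage parasites in erythrocytes (0.3% parasitemia, 2.5% hematocrit) at 37 C, 5% CO2, quantified by SYBR Green DNA staining after overnight detergent lysis.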
# [16] = molecular target: Peroxisome proliferator-activated receptor gamma (Homo sapiens) (UniProt P37231); test: qHTS assay for small molecule agonists of peroxisome proliferator-activated receptor gamma signaling (AID 588536; active = well fitted curve in the direction sought with a large enough effect in the signal ratio, with a control signal flat, not every such curve was filed as active; inconclusive = small, poorly fitted or top-dose-only effect, or effect the other way, or a change in a side signal; inactive = no such curve, though single readings can be large or run the other way; the % refers to the signal ratio;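 note: 0% = DMSO basal wells and 100% = rosiglitazone at 2 µM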); details: HEK293 PPARg-UAS-bla, beta-lactamase ratio, 16 h; activation: at 76.7 µM (top of the series), percent of rosiglitazone response, DMSO as zero
# Outline: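 HEK293 UAS-bla reporter line, 1% charcoal/dextran FBS; titration, 16 h, 37 C; CCF4 loading 2 h RT; fluorescence 460/530 nm. Normalized to rosiglitazone 2 uM = 100%, DMSO = 0%.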
# [17] = molecular target: Retinoic acid receptor RXR-alpha (Homo sapiens) (UniProt P19793); test: qHTS assay for small molecule agonists of retinoid X receptor alpha signaling (AID 588544; calls by dose curve;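 note: 0% = DMSO basal wells and 100% = reference agonist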); details: HEK293T RXRa-UAS-bla, beta-lactamase reporter, 18 h; activation: at 76.7 µM (top of the series)
# [18] = qHTS Assay for Lipid Storage Modulators (AID 1519; calls by dose curve; note: % is set by controls: 0 for no effect and ±100 for the full control effect); details: Drosophila S3 cells, BODIPY lipid droplet/cell ratio, laser cytometry, cells loaded with oleic acid; activity change, negative = inhibition: at 57.5 µM (top of the series) unless noted
# Outline: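 Cells seeded at 5,000 per well were treated with compounds over a concentration series and loaded with oleic acid (400 uM, as added). Lipid droplet fluorescence (488 nm excitation, 500-530 nm channel) was read by laser-scanning cytometry and normalized to 20 uM Triacsin C.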
# [19] = qHTS for differential inhibitors of proliferation of Plasmodium falciparum line 3D7 (AID 1876); note: potency is the fitted concentration of half-maximal effect
# Tags give direction and shape of the fitted curve.
# Chain of UniProt P08684 (P08684 whole entry, looked up): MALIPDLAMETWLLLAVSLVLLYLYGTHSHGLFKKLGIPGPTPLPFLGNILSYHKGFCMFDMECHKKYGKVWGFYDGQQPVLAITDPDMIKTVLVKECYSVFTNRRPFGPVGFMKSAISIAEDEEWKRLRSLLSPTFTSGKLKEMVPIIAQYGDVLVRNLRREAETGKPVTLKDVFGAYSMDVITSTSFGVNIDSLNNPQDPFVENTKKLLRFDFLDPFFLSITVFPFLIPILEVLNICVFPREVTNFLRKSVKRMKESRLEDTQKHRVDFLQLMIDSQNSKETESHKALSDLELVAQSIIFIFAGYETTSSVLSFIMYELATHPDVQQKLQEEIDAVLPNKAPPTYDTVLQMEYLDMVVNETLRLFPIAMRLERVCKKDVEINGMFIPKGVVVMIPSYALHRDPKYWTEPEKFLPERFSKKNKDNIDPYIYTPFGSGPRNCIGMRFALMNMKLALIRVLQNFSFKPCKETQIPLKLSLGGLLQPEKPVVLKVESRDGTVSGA
# Chain of UniProt P10635 (P10635 whole entry, looked up): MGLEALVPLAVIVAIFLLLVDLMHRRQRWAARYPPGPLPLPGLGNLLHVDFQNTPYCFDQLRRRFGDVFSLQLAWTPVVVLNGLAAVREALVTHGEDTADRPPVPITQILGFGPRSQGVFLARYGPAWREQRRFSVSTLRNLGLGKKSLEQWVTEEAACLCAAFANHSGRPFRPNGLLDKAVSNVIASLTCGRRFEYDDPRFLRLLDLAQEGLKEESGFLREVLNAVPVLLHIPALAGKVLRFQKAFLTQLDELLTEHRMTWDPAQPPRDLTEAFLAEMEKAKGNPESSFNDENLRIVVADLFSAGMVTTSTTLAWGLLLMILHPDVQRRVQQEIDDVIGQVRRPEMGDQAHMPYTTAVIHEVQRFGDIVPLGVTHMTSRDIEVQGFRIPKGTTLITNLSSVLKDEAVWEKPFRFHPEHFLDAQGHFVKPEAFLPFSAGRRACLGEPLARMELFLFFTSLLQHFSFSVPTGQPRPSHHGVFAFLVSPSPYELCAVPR
# Chain of UniProt P37231 (P37231 whole entry, looked up): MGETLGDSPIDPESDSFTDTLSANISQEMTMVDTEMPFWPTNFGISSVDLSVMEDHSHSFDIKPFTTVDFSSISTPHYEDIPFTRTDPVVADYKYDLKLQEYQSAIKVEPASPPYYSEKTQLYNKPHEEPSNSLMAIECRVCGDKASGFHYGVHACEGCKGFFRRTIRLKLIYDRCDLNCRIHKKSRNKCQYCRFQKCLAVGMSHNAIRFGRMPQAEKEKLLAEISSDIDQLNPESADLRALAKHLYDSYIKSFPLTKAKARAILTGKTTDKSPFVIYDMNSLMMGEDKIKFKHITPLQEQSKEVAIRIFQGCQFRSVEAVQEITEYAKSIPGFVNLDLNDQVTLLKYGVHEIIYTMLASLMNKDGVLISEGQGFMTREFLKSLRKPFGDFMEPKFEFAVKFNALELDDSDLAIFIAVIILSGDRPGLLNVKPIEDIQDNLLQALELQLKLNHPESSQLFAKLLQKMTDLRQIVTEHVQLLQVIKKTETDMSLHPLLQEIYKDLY
# Chain of UniProt Q03181 (Q03181 whole entry, looked up): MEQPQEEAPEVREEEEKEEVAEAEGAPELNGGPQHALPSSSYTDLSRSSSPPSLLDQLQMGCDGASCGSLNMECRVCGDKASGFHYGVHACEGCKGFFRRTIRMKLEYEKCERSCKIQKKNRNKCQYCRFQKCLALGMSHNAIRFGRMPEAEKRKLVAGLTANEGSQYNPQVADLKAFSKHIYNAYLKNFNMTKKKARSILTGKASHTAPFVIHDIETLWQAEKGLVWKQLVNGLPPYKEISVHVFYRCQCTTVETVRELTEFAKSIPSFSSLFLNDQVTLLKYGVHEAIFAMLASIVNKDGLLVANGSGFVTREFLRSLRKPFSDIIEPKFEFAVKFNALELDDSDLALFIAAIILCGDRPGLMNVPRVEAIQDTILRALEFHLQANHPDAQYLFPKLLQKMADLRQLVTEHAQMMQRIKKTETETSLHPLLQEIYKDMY
# Chain of UniProt P19793 (P19793 whole entry, looked up): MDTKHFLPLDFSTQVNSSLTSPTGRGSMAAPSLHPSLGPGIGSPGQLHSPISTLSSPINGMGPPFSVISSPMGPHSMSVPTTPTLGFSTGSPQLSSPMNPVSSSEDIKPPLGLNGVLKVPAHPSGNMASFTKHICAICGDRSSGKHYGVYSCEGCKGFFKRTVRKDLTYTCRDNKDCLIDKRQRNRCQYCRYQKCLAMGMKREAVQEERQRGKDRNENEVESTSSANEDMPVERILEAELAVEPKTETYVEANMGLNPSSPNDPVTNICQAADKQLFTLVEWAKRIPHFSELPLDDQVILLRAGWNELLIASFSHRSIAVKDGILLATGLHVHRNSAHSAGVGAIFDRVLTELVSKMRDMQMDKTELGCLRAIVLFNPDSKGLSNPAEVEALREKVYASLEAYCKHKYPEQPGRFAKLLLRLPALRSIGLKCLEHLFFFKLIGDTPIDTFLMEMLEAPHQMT
compound,measurement,setting,value
OC1C(O)C(O)C(O)C(O)C1O (stereo not given),Potency,[1],inactive
same,Potency,[2],inactive
same,Potency,[3],inactive
same,Potency,[4],inactive
same,Potency,[5],inactive
Cc1cc(NC(=O)C2=C(O)c3ccccc3S(=O)(=O)N2C)no1,Potency,[2],inactive
same,Potency,[6],inactive
Cc1ccc(C2(O)CCN(CCCC(=O)c3ccc(F)cc3)CC2)cc1,Potency,[7],"inconclusive [inhibitor, single point]"
NS(=O)(=O)c1cc2c(cc1C(F)(F)F)NCNS2(=O)=O,Potency,[8],inactive
same,Potency,[9],inactive
same,Potency,[10],inactive
NCCCC(=O)O,Potency,[8],"inconclusive [activator, full curve]"
same,"activity change, negative = inhibition",[11],inconclusive: -13.8% [phenotype inactive]
Oc1cccc(O)c1O,"activity change, negative = inhibition",[12],inconclusive: -17.3%
same,Potency,[13],inactive
same,Potency,[14],active: 5.96 µM
same,Potency,[5],"inconclusive [inhibitor, partial curve, poor fit]"
C=CCCCCCCCCC(=O)OC,Potency,[15],"inconclusive [falling, partial curve, poor fit]"
O=C(OOC(=O)c1ccccc1)c1ccccc1,"activity change, negative = inhibition",[13],inconclusive: 6.04%
same,Potency,[10],inactive
same,Potency,[4],inactive
CC(CCc1ccc(O)cc1)NCC(O)c1ccc(O)cc1 (stereo not given),Potency,[15],"inconclusive [falling, single point]"
Cn1c(O)c(N=NC(N)=S)c2ccccc21,Potency,AA1029,"inconclusive [inhibitor, single point]"
C[S+](CC[C@H](N)C(=O)O)C[C@H]1O[C@@H](n2cnc3c(N)ncnc32)[C@H](O)[C@@H]1O (stereo not given in full),Potency,[15],"inconclusive [falling, single point]"
same,Potency,AA1029,"inconclusive [inhibitor, single point]"
O=C(O)CO.[NH2-].[NH2-].[Pt+2],Potency,AA1029,inactive
COC(=O)C1=C(C#N)NC(C)=C(C(=O)OC(C)C)C1c1cccc([N+](=O)[O-])c1 (stereo not given),Potency,AA1029,active: 11.2 µM
Oc1ccccc1,"activity change, negative = inhibition",[13],inconclusive: 2.81%
same,Potency,[3],inactive
same,Potency,[4],inactive
C=Cc1ccccc1,Potency,[16],inactive
same,activation,[17],inconclusive: 42.5%
CN1c2cc(O)c(N=NC(N)=O)cc2CC1S(=O)(=O)O (stereo not given),max response,[7],inactive: 13%
same,"activity change, negative = cytotoxic",[2],inconclusive: -35.6% [cytotoxic]
CN1CC(O)c2cc(N=NC(N)=O)c(O)cc21 (stereo not given),Potency,[15],"inconclusive [falling, single point]"
CC1(C)S[C@@H]2[C@H](NC(=O)C(c3ccccc3)S(=O)(=O)O)C(=O)N2[C@H]1C(=O)O (stereo not given in full),Potency,[2],inactive
C=CC1=C(C(=O)O)N2C(=O)[C@@H](NC(=O)/C(=N\O)c3csc(N)n3)[C@H]2SC1 (stereo in doubt),Potency,[15],inactive
CO[C@H]1O[C@@H]2O[C@@]3(C)CC[C@H]4[C@H](C)CC[C@@H]([C@H]1C)[C@@]24OO3,Potency,[15],"inconclusive [falling, single point]"
C=CC[N+]1([C@H]2C[C@H]3[C@@H]4CC[C@H]5C[C@H](O)[C@@H](N6CCOCC6)C[C@]5(C)[C@H]4CC[C@]3(C)[C@H]2OC(C)=O)CCCC1,max response,[7],inactive: -0.733%
COc1cc(S(C)=O)ccc1-c1nc2ncccc2[nH]1 (stereo not given),Potency,[8],"inconclusive [inhibitor, partial curve]"
same,"activity change, negative = inhibition",[18],inconclusive: 12.4%
COC(C)=O,Potency,[13],inactive
same,Potency,[16],inactive
same,Potency,[17],inactive
same,Potency,[14],inactive
COc1ccc(CCNC[C@H](O)c2ccc(O)cc2)cc1OC,"activity change, negative = inhibition",[11],inconclusive: -1.59% [phenotype inactive]
OC[C@H]1O[C@@H]2O[C@H]3[C@H](O)[C@@H](O)[C@@H](O[C@H]4[C@H](O)[C@@H](O)[C@@H](O[C@H]5[C@H](O)[C@@H](O)[C@@H](O[C@H]6[C@H](O)[C@@H](O)[C@@H](O[C@H]7[C@H](O)[C@@H](O)[C@@H](O[C@H]1[C@H](O)[C@H]2O)O[C@@H]7CO)O[C@@H]6CO)O[C@@H]5CO)O[C@@H]4CO)O[C@@H]3CO,"activity change, negative = inhibition",[12],inconclusive: 18.5%
Cc1cc(C)c(NC(=O)C[C@H](CC(=O)O)c2cccc3ccccc23)c(C(=O)N2CCC3(CCCC3)CC2)c1,Potency,[19],"inconclusive [inhibitor, single point]"
CC/C=C\C/C=C\C/C=C\C/C=C\C/C=C\C/C=C\CCC(=O)O,Potency,[5],"inconclusive [inhibitor, full curve]"
O=P(O)(O)OP(=O)(O)O,Potency,AA1029,"inconclusive [inhibitor, single point]"
CCOC(=O)Cc1ccc(-c2ccccc2)cc1,Potency,AA1029,"inconclusive [inhibitor, full curve, poor fit]"
O=C1CCC(c2ccc(-n3ccnc3)cc2)=NN1,"activity change, negative = inhibition",[11],inconclusive: -15% [phenotype inactive]
CCOC(C)=O,activation,[14],inconclusive: 7.93%
O=c1[nH]c(=O)n([C@H]2C[C@H](O)[C@@H](CO)O2)cc1/C=C/Br,Potency,[19],inactive
C=C(C)C1CC=C(C)CC1 (stereo not given),Potency,[14],inactive and active: 1.12 mM
